# From patent publication US20120202801A1, “METHODS FOR TREATING BREAST CANCER” (priority 2009, published 2012)
# Tested on: hypoxia-inducible endogenous VEGF expression
# Test: Hypoxia-inducible endogenous VEGF expression ELISA in HeLa cells, dose-response (EC50, Table 3)
# Conditions: read-out: ELISA EC50 μM, hypoxic conditions (1% O2, 5% CO2), VEGF protein by ELISA of conditioned media
smiles,measurement,value
Cc1ccc(OC(=O)N2CCc3c([nH]c4ccc(Cl)cc34)[C@@H]2c2ccc(OCC(C)(CO)CO)cc2)cc1 [Compound 1297],EC50,0.008 to 0.04 µM
